The other results are listed elsewhere or left out. Rule as the data show it: active = 25% or less and inactive = the rest. Most values come without repeats; read them as rough.
What follows are compounds tested on Salmonella enterica serovar Typhimurium SL1344 (assay: intramacrophage bacterial GFP load (SAFIRE), percent of DMSO control (% of DMSO); higher = more intracellular bacteria (less inhibition)). Conditions: 25 µM; system: infected RAW 264.7 macrophages.
Method: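 Secondary screen of the 553 primary hits at 25 µM. (i) S. Typhimurium SL1344 grown in Mueller-Hinton broth with 0.5 µg/mL polymyxin B, OD600 read after 18 h. (ii) SAFIRE assay: RAW 264.7 macrophages infected with S. Typhimurium sifB::gfp (MOI 30); compound added 2 h post-infection; cells fixed at 18 h; GFP-positive pixel fraction per macrophage imaged by confocal microscopy and expressed as % of DMSO control.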
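Also: compounds tested were the hits of an earlier 50 µM broth growth screen of a drug-like diversity library run with polymyxin B.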

Compound | intramacrophage bacterial GFP load
CCC1CN(Cc2ccc(C(=O)OC)cc2)Cc2cc(OC)ccc2O1 (stereo unspecified) | inactive: 42.8
COc1ccc(CN2Cc3cc(C)ccc3OC(c3ccsc3)C2)cc1O (stereo unspecified) | inactive: 41.4
Cc1cc(-c2cc(F)cc3c2OC(CNC(=O)c2ccco2)C3)ccc1F (stereo unspecified) | inactive: 111
CN(Cc1ccccc1)C(=O)c1cn(CCCc2ccccc2)nn1 | inactive: 125
CC(C)Oc1cccc(C(=O)C2CCCN(C(=O)/C=C/c3cccs3)C2)c1 (stereo unspecified) | inactive: 88.6
O=C(CN1CC(c2ccccc2)CC1=O)NCCN1Cc2ccccc2OC(c2ccccc2F)C1 (stereo unspecified) | inactive: 36.2
Cc1ccsc1CN(C)Cc1cnc(S(=O)(=O)C(C)C)n1Cc1ccccc1F | inactive: 66.1
c1ccc(CCCc2noc(-c3ccc(N4CCCO4)nc3)n2)cc1 | inactive: 106
COCCNC(=O)c1ccc(OC2CCN(Cc3ccccc3OC)CC2)c(Cl)c1 | inactive: 164
C=CCN(CC=C)c1ccc(-c2nc(-c3cccc(OC)c3OC)no2)cn1 | inactive: 193
COCc1noc(-c2ccc(N3CCC(c4ccccc4F)C3)nc2)n1 (stereo unspecified) | inactive: 176
O=C(c1cn(Cc2ccc(F)cc2)nn1)N1CC[C@@H]2CCCC[C@H]2C1 | inactive: 109
CCOC(=O)N1CCN(c2nncc(-c3ccc4ccccc4c3)n2)CC1 | inactive: 104
O=C1N(C2Cc3ccccc3C2)C[C@@H]2C[C@@H](c3cccn3-c3cccnc3)N3CCC[C@@]123 | inactive: 48.9
OC(Cc1ccccc1)c1ccc2c(c1)CN(Cc1ccc(OC(F)F)cc1)CCO2 (stereo unspecified) | inactive: 63.7
O=C(NCC1OCCc2ccccc21)c1coc(COc2ccccc2)n1 (stereo unspecified) | inactive: 139

Compound | intramacrophage bacterial GFP load
CC(C)Oc1ccc(C(=O)N2CCC(CO)(Cc3ccc(Cl)cc3)CC2)cc1 | inactive: 151
c1cc(C2CCCCC2)ccc1-c1cnnc(N2CCOCC2)n1 | inactive: 85.4
O=C(Nc1ccc(-c2cccc(F)c2)cc1)C1CCCN(C(=O)Cc2ccccn2)C1 (stereo unspecified) | inactive: 55.7
O=C(C1CCCC1)N1CCCC(CCc2ccccc2F)C1 (stereo unspecified) | inactive: 44.1
COc1ccc2c(c1)SC(c1ccc(OC)c(C)c1)CCN2Cc1cccc2nccnc12 (stereo unspecified) | inactive: 128
COc1ccc(CC2(CCC(=O)NCCc3ccccc3C(F)(F)F)CCC(=O)N2)c2ccccc12 (stereo unspecified) | active: 1.07
COc1cc(-c2nc(CN(CCO)Cc3cccs3)c(C)o2)ccc1F | inactive: 34.3
CN(Cc1cccnc1)C(=O)C1(N2CCCCC2)Cc2ccccc2C1 | inactive: 59.3
CCOC(=O)C1(CCCc2ccccc2)CCN(C(=O)C2CC23CCC3)CC1 (stereo unspecified) | inactive: 42.9
Cc1cccc(C(=O)N2CCCC(C(=O)c3cccc4ccccc34)C2)c1 (stereo unspecified) | inactive: 106
COc1ccc2cc(CN(Cc3ccco3)C(=O)CCn3ccc(C)n3)c(N3CCCCCC3)nc2c1 | inactive: 93.4
COc1ccccc1CN1CCc2c([nH]c3ccccc23)C1c1cccc(O)c1 (stereo unspecified) | active: 0.0216
CN(C(=O)c1ccccn1)C(Cc1ccccc1)C1CCN(C(=O)/C(F)=C/c2ccccc2)CC1 (stereo unspecified) | active: 5.74
COc1ccc(-c2nn(-c3ccccc3C)cc2CN(C)Cc2cnccn2)cc1F | inactive: 52.6
OCC1CCCCN1c1ccc(-c2nc(CCc3ccccc3)no2)cn1 (stereo unspecified) | inactive: 101

From the supplement of paper PMC12889115
